Source: PubChem BioAssay AID686970 (National Center for Advancing Translational Sciences (NCATS), 2013)
The whole screen tested about 360,000 compounds, of which about 6,000 (1.7%) were called active. Inconclusive results, whose numbers are uncertain, are shown with a selection of clear calls. Calls come from the whole dose curve; as a rule, active = well fitted cell-killing curve with a large enough effect; inconclusive = small, poorly fitted or top-dose-only effect, or effect the other way; inactive = flat fitted curve, though single readings scatter. No potency is given beside an inconclusive call; the fits are too rough.
Potency is the fitted concentration of half-maximal effect; tags give direction and shape of the fitted curve.

Assay: qHTS for induction of synthetic lethality in tumor cells producing 2HG: qHTS for the HT-1080-NT fibrosarcoma cell line;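 note: NT is the 2HG producing partner of a matched IDH1 knockdown line; nearly all actives have a fitted effect of over 55% in size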;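 for activity, negative = less viability: 0% = DMSO-treated cells and -100% = media-only wells without cells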
Conditions: HT-1080-NT fibrosarcoma viability, CellTiter-Glo ATP luminescence, 48 h; activity, negative = less viability: at 46.1 µM (top of the series) unless noted
How it was run: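 Compounds were tested in concentration-response format on HT-1080-NT cells for 48 hours at 37 degrees C. Cell viability came from CellTiter-Glo luminescence; curves were classified by r2, response magnitude and activity.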
For `O=C(NCCc1ccc(Cl)cc1)C1CCC(CNc2nc(=S)[nH]c3ccccc23)CC1` (stereo not drawn), the Potency was “inactive”. In the case of `CC(=O)c1c(C)n(-c2ccccc2Br)c2ccc(O)cc12`, the Potency is reported as inconclusive [cytotoxic, partial curve]. In the case of `CCn1c(SCC(=O)NNC(=O)c2ccc(C)cc2)nnc1-c1ccncc1`, the Potency is reported as “inactive”. In the case of `CCN1C(=O)c2ccccc2Sc2ccc(C(=O)NCCCN3CCCCC3)cc21`, the Potency is reported as inconclusive [cytotoxic, single point]. In the case of `O=C1[C@@H](Oc2ccccc2)[C@@H](c2ccncc2)N1c1ccccc1`, the Potency is reported as inconclusive [cytotoxic, single point]. With `O=C(COc1ccccc1)N/N=C/c1ccc([N+](=O)[O-])o1` the Potency was inconclusive [cytotoxic, single point]. With `N#Cc1ccccc1OCc1cccc(S(=O)(=O)N2CCOCC2)c1` the activity, negative = less viability was inactive: -11.5% [at 9.24 µM]. For `CCc1ccc(-c2csc3ncn(CC(=O)NCc4ccco4)c(=O)c23)cc1`, the Potency was inconclusive [cytotoxic, partial curve]. In the case of `O=C(/C=C/Sc1ccccc1)c1ccccc1`, the Potency is reported as active: 2.82 µM. For `COc1cccc(-n2ccnc2SCC(=O)Nc2ccccc2)c1`, the Potency was “inactive”. For `COc1ccc(CCc2nnc(CCC(=O)N(C)Cc3ccnc4ccccc34)o2)cc1`, the Potency was inconclusive [cytotoxic, single point]. For `CC(C)CC(N)c1csc(Nc2ccccn2)n1` (stereo not drawn), the Potency was inconclusive [cytotoxic, single point]. For `N=c1ccn(Cc2ccc(Cl)cc2Cl)cc1`, the Potency was inconclusive [cytotoxic, partial curve]. For `COc1ccccc1Nc1nc(NCc2ccco2)nc(N)c1[N+](=O)[O-]`, the Potency was “inactive”. With `O=C1NC(c2cccc(OCc3ccccc3)c2)Nc2ccccc21` (stereo not drawn) the Potency was inconclusive [cytotoxic, full curve]. With `S=C1NC[C@H](CC2CCCCC2)N1CC1CCCCC1` the Potency was inconclusive [cytotoxic, single point]. In the case of `CC1=CN2C(=N)/C(=C/c3ccc([N+](=O)[O-])o3)C(=O)N=C2S1`, the Potency is reported as inconclusive [cytotoxic, single point]. With `CSc1nsc(SCC(=O)Nc2nc3ccc(C)cc3s2)n1` the Potency was “inactive”. With `COc1ccc([N+](=O)[O-])cc1NC(=S)NC(NC(=O)Cc1ccc(OC)c(OC)c1)C(Cl)(Cl)Cl` (stereo not drawn) the Potency was inconclusive [cytotoxic, single point]. With `CCCN(CCC)c1nc(N(CCC)CCC)[nH]c(=O)n1` the Potency was inconclusive [rising, single point]. For `C=CCC1NS(=O)(=O)OC(COC)C1C` (stereo not drawn), the Potency was inconclusive [rising, single point]. With `CC(=O)Nc1ccc(-c2sc(Nc3ccccc3)n[n+]2C)cc1` the Potency was “inactive”. With `CCOC(=O)C(CC)/C(C)=N\NC(=O)c1ccccc1O` (stereo not drawn) the Potency was inconclusive [cytotoxic, partial curve]. In the case of `COc1ccc(NC(=O)C2Cc3c(-c4cccc(C(N)=O)c4)ccnc3O2)cc1` (stereo not drawn), the Potency is reported as active: 11.6 µM. For `CC(=O)C(C(C)=O)c1c(Cl)c(O)c(O)c2c(C(=O)c3ccccc3)coc12`, the Potency was inconclusive [cytotoxic, partial curve]. With `CCC(C)CCN1CCN=C1Nc1ccccc1` (stereo not drawn) the Potency was “inactive”. For `Cc1onc(-c2c(F)cccc2Cl)c1C(=O)Nc1nc2c(s1)CCCC2`, the Potency was inconclusive [cytotoxic, single point]. In the case of `CC(=O)Oc1c(Cl)cc(N(C(C)=O)S(=O)(=O)c2ccccc2)c2ccccc12`, the Potency is reported as inconclusive [cytotoxic, single point]. For `CCCCc1c(-c2ccc(F)cc2)ncn1CCc1ccccc1OC`, the Potency was inconclusive [cytotoxic, single point]. For `CCC1CSC(Nc2ccc(C(=O)/C=C/c3ccc(Br)cc3)cc2)=N1` (stereo not drawn), the Potency was inconclusive [cytotoxic, single point]. With `O=C(CCNc1cccc(C(F)(F)F)c1)c1ccco1` the Potency was inconclusive [cytotoxic, single point]. In the case of `COc1ccc(C2CCc3cc(OC)c(OC)cc3C2NC=O)cc1OC` (stereo not drawn), the Potency is reported as “inactive”. With `CC(=O)Cc1nsc(NC(=O)c2ccc(-c3cc(C(F)(F)F)ccc3Cl)o2)n1` the Potency was active: 11.2 µM. For `CCCCN(CC)CCNc1c(NC2CCN(C(=O)OCC)CC2)c(=O)c1=O`, the Potency was “inactive”. In the case of `COc1ccc(F)cc1S(=O)(=O)NC1CCCC1`, the Potency is reported as inconclusive [cytotoxic, full curve]. For `COc1ccc(NC(=O)C2Cc3c(-c4cccc(F)c4)ccnc3O2)cc1OC` (stereo not drawn), the Potency was inconclusive [cytotoxic, single point]. With `O=C(NCc1ccc(F)c(F)c1)C1Cc2c(-c3ccc4c(c3)OCO4)ccnc2O1` (stereo not drawn) the Potency was inconclusive [cytotoxic, full curve, poor fit]. In the case of `S=C1SCN(Cc2ccccn2)CN1Cc1ccco1`, the Potency is reported as inconclusive [cytotoxic, single point]. With `Cc1ccnc(N2C3CCC2CC(O)(c2ccccc2)C3)n1` (stereo not drawn) the Potency was “inactive”. For `Cn1sccc1=O`, the Potency was inconclusive [cytotoxic, single point]. In the case of `Cc1cc(C)c(OCC(=O)Nc2cccc(NC(=O)c3ccco3)c2)c(Br)c1`, the Potency is reported as inconclusive [cytotoxic, single point]. With `CC(C)CCn1c(SCC(=O)c2ccccc2)nc2c1c(=O)[nH]c(=O)n2C` the Potency was “inactive”. In the case of `CN(C)c1ccc(C=c2c3cc([N+](=O)[O-])ccc3n3c2cc(-c2ccccc2)[n+]3C)cc1`, the Potency is reported as inconclusive [cytotoxic, single point]. With `CC1(Cc2ccccc2OC(F)(F)F)C(=O)Nc2ccc(OC(F)(F)F)cc21` (stereo not drawn) the Potency was inconclusive [cytotoxic, single point]. With `CNC(=O)OCc1nc(SSC(C)(C)C)n(C)c1COC(=O)NC` the Potency was inconclusive [cytotoxic, single point]. For `CCn1nnc2cc(C(=O)Nc3cccc(S(=O)(=O)N(C)C)c3)ccc21`, the Potency was “inactive”. With `Nc1nc(-c2ccc(F)cc2)cs1` the Potency was “inactive”. For `CC(Sc1nnc(N)s1)C(=O)Nc1ccc2c(c1)OCO2` (stereo not drawn), the Potency was “inactive”. With `Cc1nc2c(-c3ccccc3)c(C)nn2c(C)c1CCC(=O)N1CCOCC1` the Potency was “inactive”. In the case of `O=C1CC(SC(=Nc2ccccc2)Nc2ccccc2)C(=O)N1c1ccc(Cl)c(Cl)c1` (stereo not drawn), the Potency is reported as inconclusive [cytotoxic, single point]. For `O=C(CC1Sc2ccccc2NC1=O)NNc1cccc(Cl)c1Cl` (stereo not drawn), the Potency was inconclusive [cytotoxic, single point]. For `S=C1SC2(CCCCCC2)NC2=C1CCCCC2`, the Potency was “inactive”. With `CS(=O)(=O)Nc1ccc(C2=NN(C(=O)c3ccco3)C(c3ccccc3F)C2)cc1` (stereo not drawn) the Potency was “inactive”. With `CN(C)CCN1C(=O)NC(C)(c2ccc([N+](=O)[O-])cc2)C1=O` (stereo not drawn) the Potency was “inactive”. With `O=C(c1cc(-c2ccccc2)n[nH]1)N1CCc2c([nH]c3ccccc23)C1c1ccccn1` (stereo not drawn) the Potency was inconclusive [cytotoxic, partial curve]. In the case of `O=C(/C=C/c1ccc(Br)cc1)c1ccco1`, the Potency is reported as inconclusive [cytotoxic, full curve, poor fit]. For `O=C(Nc1cnn(Cc2c(Cl)cccc2Cl)c1)C(c1ccccc1)c1ccccc1`, the Potency was “inactive”. With `CCOC(=O)c1sc(NC(=O)CSC(=S)N2CCN(C)CC2)nc1C` the activity, negative = less viability was inconclusive: -34% [cytotoxic]. For `COc1ccccc1-c1cnc(C(O)c2cccc(F)c2)[nH]1` (stereo not drawn), the Potency was “inactive”. With `OC(c1ccccc1)(c1ccccc1)C1CCN(CCCOc2ccccc2)CC1` the Potency was inconclusive [cytotoxic, single point]. With `CCN(CC)S(=O)(=O)c1ccc(-c2nnc(SCC(=O)Nc3nc(C)cs3)o2)cc1` the Potency was inconclusive [cytotoxic, partial curve]. For `Cc1ccc(C(=O)NCCc2ccc(S(N)(=O)=O)cc2)o1`, the Potency was inconclusive [rising, single point]. With `COc1ccc(/C=N\NC(=O)c2ccccc2F)cc1COc1ccc(F)cc1F` the Potency was active: 2.31 µM. For `CC(=O)Nc1cccc(-c2ccnc3c2CC(C)(C(=O)NCc2cccs2)O3)c1` (stereo not drawn), the Potency was inconclusive [cytotoxic, full curve]. For `Cc1cc2nc(C3CCCN(C(=S)Nc4ccccc4)C3)[nH]c2cc1C` (stereo not drawn), the Potency was inconclusive [cytotoxic, single point]. In the case of `CCOC(=O)/C(=N\Nc1ccc(OC)cc1)c1csc(Nc2ccccc2)n1`, the Potency is reported as inconclusive [cytotoxic, single point]. For `Cn1c(/C=C/c2ccccc2)nc2ccccc21`, the Potency was inconclusive [cytotoxic, partial curve]. With `Nc1ccccc1SC(C[N+](=O)[O-])c1ccccc1` (stereo not drawn) the Potency was inconclusive [cytotoxic, single point]. In the case of `COc1ccc(NC(=O)C2CCC(CNS(=O)(=O)c3cccs3)CC2)cc1` (stereo not drawn), the Potency is reported as inconclusive [cytotoxic, partial curve]. With `CCN(CC)CCCn1c2c(c(SCC(=O)N3CCCc4ccccc43)nc1=O)CCC2` the Potency was inconclusive [cytotoxic, partial curve]. With `CN(C)/C=C(\c1cnc(Cl)s1)S(=O)(=O)c1ccccc1` the Potency was “inactive”. For `CCOC(=O)C1CCCN(C(=O)/C=C/c2ccc(Cl)cc2)C1` (stereo not drawn), the Potency was “inactive”. For `O=C(/C=C/c1ccccc1)NC(NC(=S)Nc1ccc(Cl)cc1)C(Cl)(Cl)Cl` (stereo not drawn), the Potency was inconclusive [cytotoxic, single point].
